These are yes or no findings as the source states them, for the method shown. Some entries that bind do so weakly or less than the wild type. For some of these results: Tags and fused reporters may be left off the sequences shown. Values belong to the molecule of their own block, whether it stands above or below them.
Tests used:
[1] = target: HsCtIP amino acids 845–890 fused to the GBD domain of Gal4 (human) (UniProt Q99708); assay: two-hybrid; HsCtIP fragments fused to GBD tested against GAD-HsRAD50 head (wild type or mutant); plates lacking histidine, stringency raised by 3-amino-1,2,4-triazole (3AT; 1 mM, 4 mM named)
[2] = target: HsCtIP 845–890 Phe856Ala, GBD fusion (human) (UniProt Q99708); assay: as above
[3] = target: T1, HsCtIP amino acids 849–888 fused to the GBD domain of Gal4 (human) (UniProt Q99708); assay: as above
T1 sequence: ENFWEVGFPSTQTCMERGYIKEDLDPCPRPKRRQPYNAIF

The chains behind the UniProt entries cited, without tags or fusion partners. Where a name states a change or a piece, a line headed by the entry shows the natural chain unless it says otherwise. A line that says so, or that is headed by a name, gives the form on record, which may keep a tag or linker.
GAD-HsRAD50 head Ile24Ala (Q92878, form named): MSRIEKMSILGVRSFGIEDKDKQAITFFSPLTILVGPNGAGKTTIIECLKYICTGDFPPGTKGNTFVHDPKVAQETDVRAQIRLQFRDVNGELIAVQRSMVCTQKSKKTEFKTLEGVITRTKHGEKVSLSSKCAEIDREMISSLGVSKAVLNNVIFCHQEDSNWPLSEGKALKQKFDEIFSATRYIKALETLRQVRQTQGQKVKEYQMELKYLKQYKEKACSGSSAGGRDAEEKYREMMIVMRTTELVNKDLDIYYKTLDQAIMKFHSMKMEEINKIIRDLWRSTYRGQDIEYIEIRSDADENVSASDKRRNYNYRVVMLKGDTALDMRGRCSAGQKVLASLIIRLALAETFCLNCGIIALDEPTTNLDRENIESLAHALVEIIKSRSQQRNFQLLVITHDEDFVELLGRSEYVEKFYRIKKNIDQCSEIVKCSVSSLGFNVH
GAD-HsRAD50 head Glu5Ala (Q92878, form named): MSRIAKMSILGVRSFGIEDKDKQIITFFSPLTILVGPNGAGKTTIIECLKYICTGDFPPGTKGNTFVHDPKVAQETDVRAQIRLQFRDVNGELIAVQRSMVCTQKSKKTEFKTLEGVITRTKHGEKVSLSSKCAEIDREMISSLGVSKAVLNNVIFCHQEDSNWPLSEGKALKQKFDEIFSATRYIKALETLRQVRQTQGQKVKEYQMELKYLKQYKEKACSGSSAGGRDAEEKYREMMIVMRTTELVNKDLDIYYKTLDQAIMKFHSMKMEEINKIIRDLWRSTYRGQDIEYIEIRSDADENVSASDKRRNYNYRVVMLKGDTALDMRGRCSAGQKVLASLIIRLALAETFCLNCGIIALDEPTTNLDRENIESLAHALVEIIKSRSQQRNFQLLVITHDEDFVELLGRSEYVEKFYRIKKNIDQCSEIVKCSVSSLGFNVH
GAD-HsRAD50 head Thr119Ala (Q92878, form named): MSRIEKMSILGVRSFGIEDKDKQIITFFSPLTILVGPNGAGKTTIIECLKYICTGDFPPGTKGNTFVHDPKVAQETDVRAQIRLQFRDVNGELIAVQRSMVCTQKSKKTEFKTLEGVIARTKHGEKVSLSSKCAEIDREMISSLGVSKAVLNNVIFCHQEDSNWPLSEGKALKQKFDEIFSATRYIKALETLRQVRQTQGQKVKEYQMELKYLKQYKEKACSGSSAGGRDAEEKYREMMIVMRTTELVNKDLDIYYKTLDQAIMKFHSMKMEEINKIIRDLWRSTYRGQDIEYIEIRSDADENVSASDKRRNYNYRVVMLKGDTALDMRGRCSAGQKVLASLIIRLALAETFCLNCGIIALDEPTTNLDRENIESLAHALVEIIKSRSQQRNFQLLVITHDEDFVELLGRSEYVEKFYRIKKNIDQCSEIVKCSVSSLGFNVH
GAD-HsRAD50 head Lys112Ala (Q92878, form named): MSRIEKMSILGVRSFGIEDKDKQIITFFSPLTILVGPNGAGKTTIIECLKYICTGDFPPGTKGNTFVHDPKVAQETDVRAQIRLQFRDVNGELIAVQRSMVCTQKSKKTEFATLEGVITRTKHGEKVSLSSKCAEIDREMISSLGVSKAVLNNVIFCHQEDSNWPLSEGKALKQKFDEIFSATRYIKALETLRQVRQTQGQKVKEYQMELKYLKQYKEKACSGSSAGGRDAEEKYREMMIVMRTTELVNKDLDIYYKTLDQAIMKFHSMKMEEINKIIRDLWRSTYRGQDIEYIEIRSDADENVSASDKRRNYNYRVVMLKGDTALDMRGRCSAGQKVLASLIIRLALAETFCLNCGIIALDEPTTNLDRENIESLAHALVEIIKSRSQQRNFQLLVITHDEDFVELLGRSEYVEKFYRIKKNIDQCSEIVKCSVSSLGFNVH
GAD-HsRAD50 head Gln85Ala (Q92878, form named): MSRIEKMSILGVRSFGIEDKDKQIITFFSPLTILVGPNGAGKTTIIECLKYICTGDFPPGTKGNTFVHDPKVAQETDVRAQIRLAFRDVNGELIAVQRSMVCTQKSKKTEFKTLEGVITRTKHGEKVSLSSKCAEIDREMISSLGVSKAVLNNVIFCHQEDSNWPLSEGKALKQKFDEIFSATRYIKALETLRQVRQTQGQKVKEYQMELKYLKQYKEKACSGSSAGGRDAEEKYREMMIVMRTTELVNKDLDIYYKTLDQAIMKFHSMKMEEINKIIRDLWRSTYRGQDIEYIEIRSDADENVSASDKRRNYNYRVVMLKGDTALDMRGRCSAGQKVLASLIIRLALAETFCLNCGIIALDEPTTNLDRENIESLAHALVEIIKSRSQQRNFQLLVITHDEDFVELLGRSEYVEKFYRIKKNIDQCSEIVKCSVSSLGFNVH
GAD-HsRAD50 head Leu93Ala (Q92878, form named): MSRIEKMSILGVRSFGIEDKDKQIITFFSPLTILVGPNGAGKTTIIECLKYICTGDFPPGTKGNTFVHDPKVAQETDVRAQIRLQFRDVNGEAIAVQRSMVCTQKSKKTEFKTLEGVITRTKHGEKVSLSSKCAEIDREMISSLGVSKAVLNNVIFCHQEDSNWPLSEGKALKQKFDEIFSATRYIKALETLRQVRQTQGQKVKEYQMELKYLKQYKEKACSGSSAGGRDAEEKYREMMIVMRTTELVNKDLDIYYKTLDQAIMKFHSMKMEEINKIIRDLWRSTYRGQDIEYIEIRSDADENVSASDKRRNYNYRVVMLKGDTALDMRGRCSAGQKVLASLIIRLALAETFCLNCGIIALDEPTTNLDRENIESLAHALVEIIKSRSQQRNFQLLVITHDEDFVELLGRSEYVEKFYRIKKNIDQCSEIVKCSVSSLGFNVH
GAD-HsRAD50 head Gln97Ala (Q92878, form named): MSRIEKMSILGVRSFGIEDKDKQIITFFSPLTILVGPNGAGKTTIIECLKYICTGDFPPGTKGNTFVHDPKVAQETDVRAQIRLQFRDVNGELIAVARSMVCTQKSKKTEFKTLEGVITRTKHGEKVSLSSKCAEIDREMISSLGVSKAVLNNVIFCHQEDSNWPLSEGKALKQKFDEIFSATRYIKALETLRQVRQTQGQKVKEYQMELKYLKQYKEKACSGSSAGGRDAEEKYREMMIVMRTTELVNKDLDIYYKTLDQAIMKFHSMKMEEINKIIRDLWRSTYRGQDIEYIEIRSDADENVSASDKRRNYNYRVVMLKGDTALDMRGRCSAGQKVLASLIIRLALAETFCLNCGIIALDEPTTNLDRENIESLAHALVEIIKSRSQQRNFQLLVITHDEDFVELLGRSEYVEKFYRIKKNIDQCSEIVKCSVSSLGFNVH
GAD-HsRAD50 head Asp19Ala (Q92878, form named): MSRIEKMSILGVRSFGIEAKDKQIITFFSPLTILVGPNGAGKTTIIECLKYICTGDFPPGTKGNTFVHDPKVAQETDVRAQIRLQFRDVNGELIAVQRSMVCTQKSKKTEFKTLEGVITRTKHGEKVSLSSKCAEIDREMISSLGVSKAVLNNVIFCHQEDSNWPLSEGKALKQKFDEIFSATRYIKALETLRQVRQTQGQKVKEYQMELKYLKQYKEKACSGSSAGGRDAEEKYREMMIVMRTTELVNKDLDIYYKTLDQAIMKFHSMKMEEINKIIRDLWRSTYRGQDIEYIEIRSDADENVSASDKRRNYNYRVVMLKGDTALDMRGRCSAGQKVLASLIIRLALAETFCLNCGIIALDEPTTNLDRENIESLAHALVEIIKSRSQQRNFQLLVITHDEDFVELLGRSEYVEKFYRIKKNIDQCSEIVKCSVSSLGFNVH
GBD-HsRAD50 'head' (HsRAD50h), amino acids 1–221,1098–1312 separated by an SGSSAGG linker (Q92878, form named): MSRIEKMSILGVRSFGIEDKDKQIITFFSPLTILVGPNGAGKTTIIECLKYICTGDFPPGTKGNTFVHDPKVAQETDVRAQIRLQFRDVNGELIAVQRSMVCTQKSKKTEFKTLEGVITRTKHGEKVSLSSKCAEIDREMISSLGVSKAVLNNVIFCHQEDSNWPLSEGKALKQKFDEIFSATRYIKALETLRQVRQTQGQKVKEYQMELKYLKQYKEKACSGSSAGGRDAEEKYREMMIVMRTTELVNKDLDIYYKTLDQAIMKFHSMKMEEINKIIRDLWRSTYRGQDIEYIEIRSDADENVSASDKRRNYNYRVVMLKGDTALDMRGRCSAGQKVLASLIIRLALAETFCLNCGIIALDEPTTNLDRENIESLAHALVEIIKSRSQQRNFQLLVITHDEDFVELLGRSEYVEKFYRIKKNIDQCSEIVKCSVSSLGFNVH
GAD-HsRAD50 head Val117Ala (Q92878, form named): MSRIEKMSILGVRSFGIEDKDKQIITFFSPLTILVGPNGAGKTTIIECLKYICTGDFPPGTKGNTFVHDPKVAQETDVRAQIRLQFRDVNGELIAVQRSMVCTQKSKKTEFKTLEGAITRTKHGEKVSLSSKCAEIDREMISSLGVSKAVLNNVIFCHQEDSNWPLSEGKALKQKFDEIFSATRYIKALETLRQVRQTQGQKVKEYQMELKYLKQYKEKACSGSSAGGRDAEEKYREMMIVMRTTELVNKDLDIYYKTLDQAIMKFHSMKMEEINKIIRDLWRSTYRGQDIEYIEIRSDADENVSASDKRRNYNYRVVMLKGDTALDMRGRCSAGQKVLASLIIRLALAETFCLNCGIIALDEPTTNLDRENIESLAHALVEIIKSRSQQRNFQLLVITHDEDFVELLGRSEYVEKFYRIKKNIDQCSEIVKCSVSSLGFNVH
GAD-HsRAD50 head Arg83Glu (Q92878, form named): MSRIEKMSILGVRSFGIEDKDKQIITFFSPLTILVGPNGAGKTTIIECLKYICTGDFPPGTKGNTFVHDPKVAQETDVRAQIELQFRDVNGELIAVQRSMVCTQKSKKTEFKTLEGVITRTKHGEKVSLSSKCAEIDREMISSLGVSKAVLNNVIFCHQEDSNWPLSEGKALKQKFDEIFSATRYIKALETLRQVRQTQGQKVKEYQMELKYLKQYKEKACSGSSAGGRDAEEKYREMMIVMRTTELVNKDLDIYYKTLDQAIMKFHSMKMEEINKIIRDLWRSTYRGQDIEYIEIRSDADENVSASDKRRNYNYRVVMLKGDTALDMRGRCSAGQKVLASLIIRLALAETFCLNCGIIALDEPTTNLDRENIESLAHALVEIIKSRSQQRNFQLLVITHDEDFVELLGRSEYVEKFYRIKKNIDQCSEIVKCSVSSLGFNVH

[4] = target: GBD-HsRAD50 'head' (HsRAD50h), amino acids 1–221,1098–1312 separated by an SGSSAGG linker (human) (UniProt Q92878); assay: two-hybrid; GAD fusions tested against GBD-HsRAD50 head (wild type or mutant) in diploids of Y2HGold x Y187; 5-fold dilutions spotted on -LTH and, more stringent, -LTA plates; 30°C

- binding [1]: binds
Molecule: GAD-HsRAD50 head Ile24Ala (from UniProt Q92878 1-221; Q92878 1098-1312) (domain or fragment)

- binding [1]: binds
Molecule: GAD-HsRAD50 head Glu5Ala (from UniProt Q92878 1-221; Q92878 1098-1312) (domain or fragment)

- binding [1]: binds
Molecule: GAD-HsRAD50 head Thr119Ala (from UniProt Q92878 1-221; Q92878 1098-1312) (domain or fragment)

- binding [1]: binds
Molecule: GAD-HsRAD50 head Lys112Ala (from UniProt Q92878 1-221; Q92878 1098-1312) (domain or fragment)

- binding [1]: binds
Molecule: GAD-HsRAD50 head Gln85Ala (from UniProt Q92878 1-221; Q92878 1098-1312) (domain or fragment)

- binding [1]: binds
Molecule: GAD-HsRAD50 head Leu93Ala (from UniProt Q92878 1-221; Q92878 1098-1312) (domain or fragment)

- binding [1]: binds
Molecule: GAD-HsRAD50 head Gln97Ala (from UniProt Q92878 1-221; Q92878 1098-1312) (domain or fragment)

- binding [1]: binds
Molecule: GAD-HsRAD50 head Asp19Ala (from UniProt Q92878 1-221; Q92878 1098-1312) (domain or fragment)

- binding [2]: binds
- binding [1]: binds
- binding [3]: binds
Molecule: GAD-HsRAD50 'head' (HsRAD50h fused to the Gal4 GAD domain) (from UniProt Q92878 1-221; Q92878 1098-1312) (domain or fragment)

- binding [1]: binds
Molecule: GAD-HsRAD50 head Val117Ala (from UniProt Q92878 1-221; Q92878 1098-1312) (domain or fragment)

- binding [1]: binds
Molecule: GAD-HsRAD50 head Arg83Glu (from UniProt Q92878 1-221; Q92878 1098-1312) (domain or fragment)

- binding [4]: no binding
B1: HsSTN1 (protein, UniProt Q9H668 1-368)
chain: MQPGSSRCEEETPSLLWGLDPVFLAFAKLYIRDILDMKESRQVPGVFLYNGHPIKQVDVLGTVIGVRERDAFYSYGVDDSTGVINCICWKKLNTESVSAAPSAARELSLTSQLKKLQETIEQKTKIEIGDTIRVRGSIRTYREEREIHATTYYKVDDPVWNIQIARMLELPTIYRKVYDQPFHSSALEKEEALSNPGALDLPSLTSLLSEKAKEFLMENRVQSFYQQELEMVESLLSLANQPVIHSASSDQVNFKKDTTSKAIHSIFKNAIQLLQEKGLVFQKDDGFDNLYYVTREDKDLHRKIHRIIQQDCQKPNHMEKGCHFLHILACARLSIRPGLSEAVLQQVLELLEDQSDIVSTMEHYYTAF

- binding [4]: no binding
B2: HsCTC1 (protein, UniProt Q2NKJ3 1-1217)
chain: MAAGRAQVPSSEQAWLEDAQVFIQKTLCPAVKEPNVQLTPLVIDCVKTVWLSQGRNQGSTLPLSYSFVSVQDLKTHQRLPCCSHLSWSSSAYQAWAQEAGPNGNPLPREQLLLLGTLTDLSADLEQECRNGSLYVRDNTGVLSCELIDLDLSWLGHLFLFPRWSYLPPARWNSSGEGHLELWDAPVPVFPLTISPGPVTPIPVLYPESASCLLRLRNKLRGVQRNLAGSLVRLSALVKSKQKAYFILSLGRSHPAVTHVSIIVQVPAQLVWHRALRPGTAYVLTELRVSKIRGQRQHVWMTSQSSRLLLLKPECVQELELELEGPLLEADPKPLPMPSNSEDKKDPESLVRYSRLLSYSGAVTGVLNEPAGLYELDGQLGLCLAYQQFRGLRRVMRPGVCLQLQDVHLLQSVGGGTRRPVLAPCLRGAVLLQSFSRQKPGAHSSRQAYGASLYEQLVWERQLGLPLYLWATKALEELACKLCPHVLRHHQFLQHSSPGSPSLGLQLLAPTLDLLAPPGSPVRNAHNEILEEPHHCPLQKYTRLQTPSSFPTLATLKEEGQRKAWASFDPKALLPLPEASYLPSCQLNRRLAWSWLCLLPSAFCPAQVLLGVLVASSHKGCLQLRDQSGSLPCLLLAKHSQPLSDPRLIGCLVRAERFQLIVERDVRSSFPSWKELSMPGFIQKQQARVYVQFFLADALILPVPRPCLHSATPSTPQTDPTGPEGPHLGQSRLFLLCHKEALMKRNFCVPPGASPEVPKPALSFYVLGSWLGGTQRKEGTGWGLPEPQGNDDNDQKVHLIFFGSSVRWFEFLHPGQVYRLIAPGPATPMLFEKDGSSCISRRPLELAGCASCLTVQDNWTLELESSQDIQDVLDANKSLPESSLTDLLSDNFTDSLVSFSAEILSRTLCEPLVASLWMKLGNTGAMRRCVKLTVALETAECEFPPHLDVYIEDPHLPPSLGLLPGARVHFSQLEKRVSRSHNVYCCFRSSTYVQVLSFPPETTISIPLPHIYLAELLQGGQSPFQATASCHIVSVFSLQLFWVCAYCTSICRQGKCTRLGSTCPTQTAISQAIIRLLVEDGTAEAVVTCRNHHVAAALGLCPREWASLLDFVQVPGRVVLQFAGPGAQLESSARVDEPMTMFLWTLCTSPSVLRPIVLSFELERKPSKIVPLEPPRLQRFQCGELPFLTHVNPRLRLSCLSIRESEYSSSLGILASSC

- binding [4]: no binding
B3: HsTEN1 (protein, UniProt Q86WV5 1-123)
chain: MMLPKPGTYYLPWEVSAGQVPDGSTLRTFGRLCLYDMIQSRVTLMAQHGSDQHQVLVCTKLVEPFHAQVGSLYIVLGELQHQQDRGSVVKARVLTCVEGMNLPLLEQAIREQRLYKQERGGSQ
